Test results taken from paper PMC10726135.
The other results are listed elsewhere or left out. At the low end of the ranking, values are background and their order means little. The protein was read in a cell extract, so binding may be indirect.

Biological target: T1, HNF4alpha2 (COS-7 nuclear extract) (UniProt P41235)
T1 sequence: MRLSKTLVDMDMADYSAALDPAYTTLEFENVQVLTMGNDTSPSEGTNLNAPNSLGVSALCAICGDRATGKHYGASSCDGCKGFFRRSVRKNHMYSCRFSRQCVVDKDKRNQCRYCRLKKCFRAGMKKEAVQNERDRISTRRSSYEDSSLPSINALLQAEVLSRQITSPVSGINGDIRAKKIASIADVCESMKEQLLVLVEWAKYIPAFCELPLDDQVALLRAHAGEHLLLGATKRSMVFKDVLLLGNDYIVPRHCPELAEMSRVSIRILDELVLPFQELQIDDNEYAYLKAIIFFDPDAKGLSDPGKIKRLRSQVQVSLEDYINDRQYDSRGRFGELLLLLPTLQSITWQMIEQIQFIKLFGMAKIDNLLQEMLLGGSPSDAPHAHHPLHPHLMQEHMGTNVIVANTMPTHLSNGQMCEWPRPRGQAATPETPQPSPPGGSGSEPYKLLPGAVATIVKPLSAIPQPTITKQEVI
Assay: protein-binding microarray
Conditions: COS-7 nuclear extract on double-stranded Agilent 4x180k PBM; binding buffer, salt, pH and temperature not given; high values mean tight binding; double strand, one strand shown; sequences stand for … in …GCCTAGGGAGATTAGAGTATCGGTCGA

| Sequence | binding signal (log2 normalized intensity) |
| --- | --- |
| CAGAGATTGGGACTATCAAATGTGGTGGGT | 1.01 |
| CGTACTTTTCATCTGATCAGTGCCCATCTG | 1.51 |
| TATTATCTTTTTAATCAATAATCTTTGCCC | 2.85 |
| CTGACCTCTGCCTCGGCCACATTCCCCGAC | 0.998 |
| CCCCTGGCAACACCCCAGTGTGTTGCATGC | 2.01 |
| CAGCAATAGGTCAGAGGACACCCGGGGTGG | -1 |
| TGGTCAGTGCATAGCTAAGCACCCAGATAA | -1.02 |
| TTGAGACCTAGAGGAGAGAGTAAATAATTG | -1.11 |
| TCCTGCCTAACCACCTGACCACAACACACA | -1.12 |
| CCACCTACTGACCAAATGGGAACATTCCTC | -1.14 |
| ATAGAGAAGCCAGGGGTAAGTTTCTAACTA | -1.08 |
| TCTGATAAGGAAGATAATGGGTCCGAAGGT | 1.85 |
| TGGTCCTGCTCAAAGGGGAAAGAGGGGGAA | -1.12 |
| CATCACAATAGGGAAACAGCGAGAGTCCTC | -0.957 |
| AGGAGGAGATAAGATCAGTATAGTTAGGGC | 0.153 |
| ACAGGTTCCCTCATGATTTAGTAAGTTCAA | 1.37 |
| CAGGGTCCAAAGGTGTCAAGAACATAGCCC | 2.58 |
| GGTAGATGGGGCCAGATTGAGAAACACATT | -0.67 |
| TGGGCAGGAGGGATCTGGCAGGGGCGCGGC | -1.17 |
| ATCCTGTCAGACCAAGGCTGCTTAACAAAC | -1.15 |
| AATGCGCAGAATTTCTTTTAATGTGTGCTT | 0.506 |
| TTCCTCTTCATATCAGTAAACCCCAATCAG | 3.84 |
| CTTGGAGACAGTCACTCCCACCCTTCCTGT | 1.9 |
| GCCAAGCAGGAGGTCAGAAACAGAAAGTCC | -0.898 |

| Sequence | binding signal (log2 normalized intensity) |
| --- | --- |
| TGCCAGCCCCGAGATAACCCCTCTCCAAGC | 4.59 |
| TTCTTTACCATGTGTTGGCACTTTGGACTT | 6.31 |
| CAGTAGGTCAGTGTCCCTCTTATACTCTCT | 0.517 |
| ATGGGAAGCTTCACAAAGGGCTGAGGTTAA | -1.15 |
| CTCATCCTGTGACCAAGAATGCCTAACCTC | -1.06 |
| GCGCGCTGGGAAGGCTCGTTCTCGCGAGAG | -1.09 |
| TCTGTACGGAAGGCCGGGCCTCAAGGGAAT | -1.24 |
| ATTAAGCTGAGGCAGAGTTGTTTGCAGAGG | 1.04 |
| CATTGCAAAATCCATCTAAATGGCAATGGC | -0.84 |
| GAAAAGAGGAAAACCAGCTCAGTGGAAATT | -1.12 |
| GTGGCCATCTTCACGCAATACTAGCAATAA | -1.05 |
| TTTTTCATGCAAATTTCCGTGTCGAAACTA | -1.03 |
| AAGGGACAAAACTTCAAAGCCCCTGAGGCC | -1.06 |
| AAATCACAGATAAACCCCTGGAGCACAGAA | -0.969 |
| TTATTTGCGCCTCCCTAGAGCAGCAGTAGG | -1.04 |
| GCCAGATGAAGCTGCAGCCTTAAGAGAGTT | -1.09 |
| TTAAGCAGCAGATAAGGCTAATCCTTACAC | -1.05 |
| GTGCAAACTTTTTCCTTTTCTTATCTGTTC | 1.83 |
| CAAAGGCACAGATCATATGGCCCACAAAGC | -1.14 |
| ACGTCGCTGCCGCAGATCCCCGCTCCCCTC | 3.84 |
| GTGTGGGACTTTGGTCTGCTGAGTCTCATG | 1.74 |
| CAGGGGGGCGCCTACGGACGGGTAAGAGTC | -1.1 |
| AGGTCCAAGCAGATGCTTTGAAGTGTAAAA | -0.0949 |
| TTTACCTGCCTGTGCTGTGGCTGCCAAGAC | -1.13 |

| Sequence | binding signal (log2 normalized intensity) |
| --- | --- |
| TCAAAGGCCAAATTGACACCGTATCATCAA | -1.03 |
| AGTGCAAGCAAACATACTGCTTATTTAAAT | -1.09 |
| GCAAGAGAATCAGAGAGATACTGAACCTTG | 2.1 |
| TCCCCCGCCAGATGTTTTTACCCTGAAGGA | 2.58 |
| CAGCTACACAAAGGCAGAGCACTAAATCTC | -1.08 |
| CACCTCTCACCTGGATGTTTTGATGAACTT | 2.32 |
| CACCCTTCAGCAAATAGTGGGAGGTGGAAG | -1.05 |
| TATTGTAAAAGAAAGTGAGCAGGCAGTGTC | 0.633 |
| ATTCACCAGGCAATCAGCCTTAGGTATGCC | -1.08 |
| GCCTCTTGACCCCTTGGCCCCGCTGTCCTG | 3.93 |
| ATGGGCAAAGGACAATAATGAATAAGCACG | -1.1 |
| TTTCCCCTAGTTACAACTGTAAACATCTAA | 0.797 |
| GAAGGAGAGTGACCTCTGCTTGAAGGCATT | 0.57 |
| TTTACTCAGAAAGGTCAGCGCTTTGGTAGG | 1.41 |
| CCTACATAGAGAGCAGTCTTGAGCGCAAAT | -1.2 |
| AGTAGCTCATTTATTATTTGTCTGGGTTAT | 1.93 |
| TGGTGGGTCAAGGTGCAAAGAGATGGGGAG | 0.918 |
| GTGTTGACCTCTGGACCTCATCTTCCTCCC | 4.53 |
| CACAGGGGAAACACAGACTCCAAAGAATGG | -1.15 |
| CTTTGAAATGTCCTGAGTGATTGTAGTGTC | 1.82 |
| AGTCTTGGATCGGGATGATCAATGTGTAGT | 1.89 |
| TGTCCCCAAGATTGAGGCCAGCAAAGGGCA | 1.83 |
| GCGGTCCGCAGCGCTGGTGGCTGCAAGGTT | -0.959 |
| CCCCCCGCCGCATCTACCAGCGTAATTCTG | 2.44 |

| Sequence | binding signal (log2 normalized intensity) |
| --- | --- |
| GAGGTGCCAGAAACCTGACTTCCAATTTAC | -0.709 |
| ATCTTTGACCTGGAGCATGACCCTTTGCAG | 2.68 |
| GTCAAAAATCTTAAGGAGGAGTGCTAGAGA | -1.07 |
| CAGTGTCATTTACAGAATTTCTCAGATGCC | 0.153 |
| CACTTTGCTCCCTCCTTCAGTGCTCTGTTG | 1.37 |
| GGACCTTGCCCTTTAGTTATCTCTTCTTTC | 4.59 |
| AGTGCCCTTCCACTTAGGCTTGCAATGCGG | -1.16 |
| TCGAGGCCTCTTTATCTCCTCCCCTTGAGA | 2.79 |
| AGAGCAAAGATCATCTGGTGGCTTGAGTTG | 0.0929 |
| GGCCGTGAAGCCGTCCTGTCCTGGACTTTC | 4.02 |
| AGAGTCCGGGGCAAACAAGGGCAACTCTAA | -1.02 |
| CCAACGGGCCACGCCCTGCACCCTACGTAA | -1.2 |
| TGCGCCTCCCTAGAGCAGCAGTAGGCTCTC | -1.15 |
| GGATCTGGCAGGGGCGCGGCCTAATGCCTG | -0.932 |
| AGGACAAAGTCCAAGGAAGGGCAAACTCTA | 2.88 |
| TTCATTGCTTTGAGCATGAGAGTTCATTGC | 1.1 |
| CTCCAAGGTGTCCAGCTTAGAGTGGACACA | 1.24 |
| GTAGTGATCCTGGTAGGGGGGTGTTATCTC | -0.0378 |
| GGATGCTGAGGTGGGAGGATCGCTTGAGCC | -1.24 |
| CGAGGCCGAGCCTCAGCCGGGAGAGGAGGC | -1.11 |
| AAAGATAGTTGTAGTTACAGCTCATTAATC | 0.177 |
